Reference: PubChem BioAssay AID504832 (National Center for Advancing Translational Sciences (NCATS), 2011)
The campaign covered roughly 310,000 compounds. About 18,000 (5.8%) were called active. The inconclusive results got no clear call from the source; some entries with a clear call stand among them for comparison. The call rests on the fitted dose curve; in most records, active means well fitted inhibition curve with a large enough effect; inconclusive means small, poorly fitted or top-dose-only effect, or another doubt; inactive means no such curve, though single readings can be large or run the other way. No potency is given beside an inconclusive call; the fits are too rough.

Assay: Primary qHTS for delayed death inhibitors of the malarial parasite plastid, 48 hour incubation
Conditions: P. falciparum luciferase growth in erythrocytes; series mostly up to 28.7 µM
Summary of the method: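 In quantitative HTS format, infected erythrocytes bearing luciferase-reporter parasites were treated for a single generation at 37 C. Luminescence after adding detection reagent served as the growth measure.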
Potency means the concentration at half of the fitted maximal effect; tags describe the fitted curve by direction and shape.

SMILES | Potency
CCCC(NC(=O)COc1cc2c(c3oc(=O)c(C)c(C)c13)CCC(C)(C)O2)C(=O)O (stereo not given) | inconclusive [inhibitor, single point]
Cc1ccc(C)c(NC(=O)CN(C)C(=O)c2ccc3[nH]c4c(c3c2)CC(C)CC4)c1 (stereo not given) | inconclusive [inhibitor, single point]
O=C(c1cccs1)N1CCC(c2nc(-c3ccc(S(=O)(=O)N4CCOCC4)cc3)no2)CC1 | inconclusive [inhibitor, partial curve]
O=C(CCCSc1nnnn1-c1cccc2ccccc12)c1ccc(F)cc1 | inconclusive [inhibitor, full curve, poor fit]
COc1ccc(/C(C)=N/OCC(=O)N2CC3(C)CC2CC(C)(C)C3)cc1 (stereo not given) | inactive
COc1cc(OC)c(NC(=O)c2csc(C)c2)cc1Cl | inactive
Cc1csc(OCC(=O)Nc2ccc(C)c(C)c2)n1 | inconclusive [inhibitor, full curve, poor fit]
O=C(CSc1ccc(-c2ccc(F)cc2)nn1)NC1CCCCC1 | inactive
CCc1ccc2ncc(S(=O)(=O)c3ccc(C)c(C)c3)c(N3CCCC3)c2c1 | inactive
CCN(CC(=O)Nc1c(F)cccc1F)C(=O)Cc1c(C)nc2ccccc2c1C | inconclusive [inhibitor, single point]
CCOC(=O)N1CCN(CC(O)COCC2=CCC3CC2C3(C)C)CC1 (stereo not given) | inconclusive [inhibitor, full curve, poor fit]
N#CCCN(C(=O)COC(=O)c1cc(=O)c2ccccc2o1)c1ccccc1 | inactive
O=C(Nc1ccccc1)C(=O)Nc1ccccn1 | inactive
C=CCOC(=O)C1=C(C)NC(SCC(=O)Nc2ccc(C)c(Cl)c2)=C(C#N)C1c1ccco1 (stereo not given) | active: 4.15 µM
Cc1ccc(C)c(S(=O)(=O)Nc2ccc3cn[nH]c3c2)c1 | inconclusive [inhibitor, single point]
O=C(N/N=C/c1ccc([N+](=O)[O-])o1)c1cc2ccccc2o1 | inconclusive [inhibitor, full curve]
O=C(NCC1CCCN(C(=O)c2cscn2)C1)c1ccc(-c2ccccc2)cc1 (stereo not given) | inconclusive [inhibitor, partial curve, poor fit]
CCNc1c2c(nc3ccccc13)CC(C)(C)CC2=O | inconclusive [inhibitor, single point]
Cc1ccccc1NCc1ccc(O)c2ncccc12 | inconclusive [inhibitor, single point]
Clc1ccc(Sc2cc(N3CCOCC3)nc(-c3ccccc3)n2)cc1 | inconclusive [inhibitor, full curve, poor fit]
CC1(C)OC(=O)C(=CNCCc2ccc(O)cc2)C(=O)O1 | inactive
Cc1ccc(N2C(=O)N3[C@H](c4ccc(Cl)cc4)[C@@H]4C(=O)N(C5CCCCC5)C(=O)[C@@H]4[C@]3(Cc3ccccc3)C2=O)cc1 | inconclusive [inhibitor, partial curve, poor fit]

SMILES | Potency
O=C1CSC(=S)N1c1ccc(F)c(Cl)c1 | inconclusive [inhibitor, single point]
Cc1ccc(NC(=O)COC(=O)C2CCC(=O)N2)c([N+](=O)[O-])c1 (stereo not given) | inactive
Cc1cc(NC(=O)CSc2nc3cc(Cl)ccc3c(=O)n2CC(C)C)no1 | inactive
COc1ccc(N(C(=O)c2snc(C(N)=O)c2N)C(C(=O)NC2CCCC2)c2ccco2)c(OC)c1 (stereo not given) | inconclusive [inhibitor, partial curve]
CC(CC(=O)Nc1cc(S(=O)(=O)N2CCOCC2)ccc1OCC(F)(F)F)c1ccccc1 (stereo not given) | inconclusive [inhibitor, single point]
CC(C)CCN1CCN(Cc2nc3ccccc3s2)CC1CCO (stereo not given) | inactive
Cc1ccc(O)c(NC(=O)CSc2ccc(Cl)cc2)c1 | inconclusive [inhibitor, partial curve, poor fit]
O=C(CCCSc1nnc(SCCCC(=O)c2ccc(F)cc2)s1)c1ccc(F)cc1 | inconclusive [inhibitor, single point]
O/N=C/c1cn(-c2ccccc2)nc1-c1ccc2c(c1)OCCO2 | inconclusive [inhibitor, full curve, poor fit]
O=C(COc1ccc(F)cc1Cl)Nc1cc(S(=O)(=O)N2CCOCC2)ccc1N1CCCCC1 | active: 4.15 µM
O=C(CSc1nc(-c2ccccc2)c(-c2ccccc2)o1)NC1CCS(=O)(=O)C1 (stereo not given) | inconclusive [inhibitor, single point]
CCN(CC)C(=O)CSc1nnc(SCc2ccc(Cl)cc2)s1 | inconclusive [inhibitor, single point]
C/C(=N\NC(=O)c1n[nH]c2c1CCC2)c1cccs1 | inconclusive [inhibitor, partial curve, poor fit]
COc1ccc(OC)c(CN2CCN(Cc3cccc4ccccc34)CC2)c1 | inconclusive [inhibitor, single point]
COc1ccc(NC(=O)c2cccc(-c3ccc(O)cc3)c2)cn1 | inconclusive [inhibitor, single point]
O=C(COc1ccccc1)N1CCN(S(=O)(=O)c2cccs2)CC1 | inactive
Cc1ccc(NC(=O)C2CCN(S(=O)(=O)c3ccc4c(c3)oc(=O)n4C)CC2)cc1 | inconclusive [inhibitor, partial curve, poor fit]
COc1ccc2nc(SCC(=O)N(C)C3CCCCC3)[nH]c2c1 | inconclusive [inhibitor, single point]
CC(C)(C)C1CCC(=NOC(=O)c2ccc(F)cc2)CC1 (stereo not given) | inconclusive [inhibitor, single point]
O=C(CNC(=O)c1ccccc1)OCC(=O)N1N=C(c2ccc(Cl)cc2)CC1c1ccco1 (stereo not given) | inconclusive [inhibitor, partial curve, poor fit]
Cc1cccn2c(=O)c3cc(C#N)c(=NC(=O)c4cccs4)n(CCCOC(C)C)c3nc12 | active: 1.65 µM
COc1ccc(N(CC(=O)N2CCN(c3cccc(Cl)c3)CC2)S(=O)(=O)c2c(C)noc2C)cc1 | active: 10.4 µM

SMILES | Potency
CCN(CC(=O)Nc1cccc(S(=O)(=O)N(C)c2ccccc2)c1)Cc1ccccc1 | inconclusive [inhibitor, single point]
O=c1[nH]c(/C=C/c2cccnc2)c([N+](=O)[O-])c(=O)[nH]1 | inconclusive [inhibitor, single point]
O=C(CCCN1C(=O)C(c2ccccc2)Oc2cccnc21)NCc1ccc(F)cc1 (stereo not given) | inconclusive [inhibitor, single point]
COc1ccc2c(C)c(CCC(=O)N3C[C@H]4C[C@@H](C3)c3cccc(=O)n3C4)c(=O)oc2c1 | inconclusive [inhibitor, partial curve, poor fit]
Cc1ccc(S(=O)(=O)N2CCOCC2)cc1C(=O)OC(C)C(=O)NC1CCCC1 (stereo not given) | inconclusive [inhibitor, partial curve, poor fit]
Cc1ccc(NC(=O)c2ccccc2NS(=O)(=O)c2ccc(F)cc2)cc1S(=O)(=O)N1CCCCC1 | active: 13.1 µM
Cc1ccc(Nc2nc(-c3ccc(O)c(O)c3)cs2)nc1 | inconclusive [inhibitor, single point]
CCOc1ccc(OCC)c(-c2c(=O)n(OCc3ccc(C(C)(C)C)cc3)c3ccccc3[n+]2[O-])c1 | inconclusive [inhibitor, full curve]
CCOCc1nnc(NC(=O)CS(=O)(=O)c2ccc(C)cc2)s1 | inactive
O=C1C(=O)N(c2ccccn2)C(c2ccc(F)cc2)/C1=C(/O)c1ccc(Br)cc1 (stereo not given) | inconclusive [inhibitor, partial curve, poor fit]
O=C(c1ccc(N2C(=O)C3C4CC(C(Br)C4Br)C3C2=O)cc1)N1CCCCC1 (stereo not given) | inconclusive [inhibitor, full curve, poor fit]
CCN(CC1CCCN(CCc2cccc(F)c2)C1)C(=O)c1cc2ccccc2o1 (stereo not given) | inconclusive [inhibitor, single point]
CC(C)c1ccc(NC2CCCN(C(=O)c3cc(C(C)C)[nH]n3)C2)cc1 (stereo not given) | inconclusive [inhibitor, partial curve]
CC(CNC(=O)Cn1ccc2cc(S(=O)(=O)N3CCCC3)ccc21)c1ccccc1 (stereo not given) | inconclusive [inhibitor, partial curve, poor fit]
CCCCOCCCn1c(N)c(C(=O)OC(C)COC)c2nc3ccccc3nc21 (stereo not given) | active: 4.65 µM
Cc1cccc(CSc2nc3ccccc3c(=O)n2C)c1 | inconclusive [inhibitor, partial curve, poor fit]
COCCCn1c(Cc2csc(Nc3cccc(Cl)c3)n2)nnc1SCC(=O)OC1CCCCC1 | active: 8.28 µM
CCn1ncc(Cl)c1C(=O)NC(=S)Nc1ccccc1Br | inactive
C=C(C)c1cccc(C(C)(C)NC(=O)NC2CCCC2)c1 | inconclusive [inhibitor, single point]
CCN(CC)S(=O)(=O)c1ccc(N2CCCC2)c(C(=O)OCC(=O)/C(C#N)=C(\C)N)c1 | active: 9.28 µM
CCC(=O)Nc1ccc(F)c(Cl)c1 | inactive
